According to article PMC4336329 (PLoS ONE, 2015):
In all, about 310,000 compounds went through this assay and about 14,000 (4.5%) showed an effect of 50% or more. Effects have a minus sign here. Some of the results follow.

biological target: human ether-à-go-go-related gene (hERG) potassium channel (human, UniProt Q12809); assay: primary screen, population patch clamp on CHO cells stably expressing hERG
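Further: peak tail current of the secondary pulse compared with the same well before compound.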

Chain of human ether-à-go-go-related gene (hERG) potassium channel (Q12809 whole entry, looked up): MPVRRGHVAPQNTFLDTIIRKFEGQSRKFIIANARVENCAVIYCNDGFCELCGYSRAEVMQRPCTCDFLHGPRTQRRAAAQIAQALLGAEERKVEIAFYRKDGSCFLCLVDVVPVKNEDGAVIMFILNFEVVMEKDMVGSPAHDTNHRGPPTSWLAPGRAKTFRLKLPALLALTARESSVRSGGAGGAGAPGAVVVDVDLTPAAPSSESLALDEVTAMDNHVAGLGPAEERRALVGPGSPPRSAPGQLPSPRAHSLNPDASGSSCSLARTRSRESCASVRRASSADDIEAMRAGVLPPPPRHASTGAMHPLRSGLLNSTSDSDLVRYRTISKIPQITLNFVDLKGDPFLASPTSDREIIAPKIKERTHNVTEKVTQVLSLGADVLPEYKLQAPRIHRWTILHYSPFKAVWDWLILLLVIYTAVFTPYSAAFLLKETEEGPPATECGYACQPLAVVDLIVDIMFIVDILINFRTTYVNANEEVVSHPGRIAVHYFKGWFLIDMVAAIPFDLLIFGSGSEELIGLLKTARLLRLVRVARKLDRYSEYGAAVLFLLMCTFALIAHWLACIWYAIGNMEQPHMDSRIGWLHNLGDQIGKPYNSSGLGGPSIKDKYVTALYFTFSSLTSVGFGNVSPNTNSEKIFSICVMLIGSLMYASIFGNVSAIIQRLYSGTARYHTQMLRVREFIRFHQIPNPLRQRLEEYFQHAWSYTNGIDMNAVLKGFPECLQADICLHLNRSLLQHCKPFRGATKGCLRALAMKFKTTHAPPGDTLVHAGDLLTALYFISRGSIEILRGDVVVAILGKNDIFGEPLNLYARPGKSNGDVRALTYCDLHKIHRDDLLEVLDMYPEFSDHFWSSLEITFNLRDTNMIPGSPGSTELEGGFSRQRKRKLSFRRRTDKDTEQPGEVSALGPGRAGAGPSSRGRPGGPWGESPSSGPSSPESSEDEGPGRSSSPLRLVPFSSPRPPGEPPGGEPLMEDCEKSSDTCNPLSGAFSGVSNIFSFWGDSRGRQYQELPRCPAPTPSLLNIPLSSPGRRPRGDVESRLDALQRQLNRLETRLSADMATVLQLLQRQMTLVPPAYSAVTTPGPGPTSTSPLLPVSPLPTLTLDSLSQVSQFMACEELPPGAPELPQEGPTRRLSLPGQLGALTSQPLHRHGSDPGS

| SMILES | hERG current change (%, negative = inhibition) at 10uM |
| --- | --- |
| Cc1ccc(C)c(NC(=O)CCn2cnnn2)c1 | 8.08% |
| O=C(CNC(=O)c1cccs1)N/N=C/c1cccc(Cl)c1 | -5.74% |
| CC1(C)N=C(N)N=C(N)N1c1cccc(C(=O)O)c1.Cl | 2.64% |
| O=C(NCCSc1ccccc1)c1ccccc1Cl | 5.57% |
| CCOc1ccc(N(C(=O)c2snc(C(N)=O)c2N)C(C(=O)NC2CCCC2)C(C)C)cc1 (centres unmarked) | 13.4% |
| COc1cccc(/C=N/NC(=O)c2cccc(N3CCCC3=O)c2)c1 | -24.9% |
| C=Cn1cc[n+](CC(=O)c2ccc(Br)cc2)c1.[Br-] | 9.59% |
| CCCCOC(=O)c1ccc(NC(=O)C(=O)NCc2cccnc2)cc1 | -11.6% |
| COc1cccc(NC(=O)COC(=O)/C=C/c2ccco2)c1 | -4.68% |
| CCCS(=O)(=O)NCCc1csc(-c2ccc(OC)c(OC)c2)n1 | -2.73% |
| CC(CNC(=S)Nc1cc(F)cc(F)c1)CSc1ccc(Cl)cc1 (centres unmarked) | 8.6% |
| CC1CCc2c(sc3ncnc(SCC(=O)c4ccccc4)c23)C1 (centres unmarked) | 15.5% |
| Cc1ccc(NC(=O)Cn2nnc3ccccc32)c(C)c1 | 11% |
| COc1cc(/C=N\NC(=O)c2ccc(-c3ccccc3)cc2)cc(Br)c1O | 16% |
| CCc1cc(=O)[nH]c(SCC(=O)N2CCC(Cc3ccccc3)CC2)n1 | -36.7% |
| COCCCNC(=O)CSc1ccsc1[N+](=O)[O-] | 11% |
| C=CCOC(=O)C1=C[C@@H](c2ccc(C(F)(F)F)cc2)C[C@@H](OCc2ccc(CO)cc2)O1 | -47.4% |
| CCc1ccc(OCCNc2cc(N3CCNC(C)C3)ccc2[N+](=O)[O-])cc1 (centres unmarked) | -14.8% |
| CCOC(=O)[C@@H]1[C@H]2COc3ccc(Br)cc3[C@@H]2N2C(=O)N(c3cccc(C)c3)C(=O)[C@]12C | 6.18% |
| Cc1ccc(C(=O)Nc2cccnc2)cc1S(=O)(=O)N1CCOCC1 | -1.68% |
| CCC[n+]1cn(/C(C(=S)Nc2cccc(Cl)c2C)=C(/[O-])c2ccc(OC)c(OC)c2)c2ccccc21 | -0.928% |
| O=C(Nc1ccc2[nH]c(=S)sc2c1)Nc1ccccc1F | 15.3% |

| SMILES | hERG current change (%, negative = inhibition) at 10uM |
| --- | --- |
| O=C1/C(=C/c2ccc([N+](=O)[O-])cc2)Oc2cc(O)ccc21 | 11.9% |
| O=C(Cc1ccc2cccnc2c1)c1ccc(O)cc1O | 7.3% |
| O=C(COc1cc(Cl)ccc1Cl)Nc1nnc(CC(=O)N2CCOCC2)s1 | 7.48% |
| O=C(c1ccc(CS(=O)(=O)c2cccc(C(F)(F)F)c2)o1)N1CCN(c2ccccn2)CC1 | -27% |
| O=C1N/C(=N\c2ccccn2)SC1Cc1ccc(Cl)cc1 (centres unmarked) | 4.11% |
| Nc1ccn(Cc2cccc(F)c2)n1 | 16.1% |
| O=C(Nc1ccccc1Cl)c1cc(S(=O)(=O)N2CCOCC2)cs1 | -9.07% |
| CCSc1nc(-c2ccccc2)c2cc(Cl)ccc2n1 | 11.4% |
| Cn1c(=O)c2c(nc(CN3CCN(C(c4ccccc4)c4ccccc4)CC3)n2CC(N)=O)n(C)c1=O | -5.62% |
| O=C(O)CC(NC(=O)Cc1ccc([N+](=O)[O-])cc1)c1ccc2c(c1)OCO2 (centres unmarked) | 4.42% |
| CCOc1ccc(OCc2ccc(C(=O)N(C)c3ccccc3)o2)cc1 | -13.9% |
| Cc1csc(NC(=O)c2cccnc2)n1 | 13.5% |
| CCOC(=O)c1cc(C(O)(C(F)(F)F)C(F)(F)F)c(/N=C/N(C)C)o1 | 3.36% |
| CC(Oc1ccc2oc(-c3ccccc3)c(C(=O)O)c2c1)C(=O)O (centres unmarked) | 14.7% |
| O=C(CN1C(=O)NC2(CCCC2)C1=O)Nc1cccc(Cl)c1Cl | 14.1% |
| CCC(C)N1CCN(S(=O)(=O)Cc2ccccc2)CC1 (centres unmarked) | 11.7% |
| O=C(O)CC(Cc1ccccc1)c1ccc2c(c1)OCO2 (centres unmarked) | 14.4% |
| COc1ccc(-n2c(N)c(C(=O)Nc3c(C)n(C)n(-c4ccccc4)c3=O)c3nc4ccccc4nc32)cc1 | -28.2% |
| Cc1cc(NC(=O)CSc2nc3ccccc3n2CCC#N)no1 | 10.8% |
| COCCn1nnnc1C(c1cccc(C#N)c1)N1CCCCCC1.Cl (centres unmarked) | -56.6% |
| CC(C)NC(=O)C(Cc1ccccc1)N1C(=O)c2ccccc2C1=O (centres unmarked) | -4.63% |
| Nc1cc(=O)[nH]c(SCC(=O)N2CCC(Cc3ccccc3)CC2)n1 | -2.88% |
